PubChem BioAssay AID624296 (National Center for Advancing Translational Sciences (NCATS), 2012)
The campaign covered roughly 350,000 compounds. About 9,900 (2.8%) were called active. The shares of active, inactive and inconclusive entries below differ from those in the screen. The call rests on the fitted dose curve; in most records, active means well fitted activation curve with a large enough effect; inconclusive means small, poorly fitted or top-dose-only effect; inactive means no such curve, though single readings can be large or run the other way. No potency is given beside an inconclusive call; the fits are too rough.
Potency means the concentration at half of the fitted maximal effect; tags describe the fitted curve by direction and shape.

Test: A quantitative high throughput screen for small molecules that induce DNA re-replication in MCF 10a normal breast cells. Further: nearly all actives have a fitted effect of over 50% in size. On activity, positive = re-replication: % of control where 0% means no effect.
Details: MCF 10A DNA re-replication, Hoechst nuclear intensity, 48 h; activity, positive = re-replication: at 46.1 µM (top of the series)
With `CC(C)(C)c1nnc(NC(=O)COc2ccc3c(c2)OCO3)s1` the Potency was inconclusive [activator, single point].
With `CN(Cc1cnn(Cc2ccccc2)c1)C(=O)c1cccc(S(=O)(=O)N2CCOCC2)c1` the Potency was inconclusive [activator, single point].
In the case of `Clc1ccc(-c2csc(Nc3ccccc3)[n+]2Cc2ccco2)c(Cl)c1`, the Potency is reported as inconclusive [activator, partial curve, poor fit].
With `Cc1ccc(CNC(=O)CO/N=C/c2ccc3c(c2)OCO3)cc1` the Potency was inconclusive [activator, single point].
For `Cc1ccc(Nc2nc(NCCO)c3ccccc3n2)cc1C`, the Potency was inconclusive [activator, single point].
For `NC(=S)NNc1cccc2cccnc12`, the Potency was inconclusive [activator, single point].
For `O=C(Cn1c(NCCCO)nc2ccccc21)c1cccc(Br)c1`, the Potency was “inactive”.
With `Cc1ccc(N(C(=O)c2snc(C(N)=O)c2N)C(C(=O)NC2CCCC2)c2ccncc2)cc1` (stereo not drawn) the Potency was “inactive”.
For `CC(=O)Nc1ccc(-c2csc(-c3cccnc3)n2)cc1`, the Potency was “inactive”.
In the case of `O=C(CN1CCOCC1)Nc1ccc(Oc2ccccc2)cc1`, the Potency is reported as inconclusive [activator, partial curve, poor fit].
In the case of `Cc1nc(Oc2ccccc2)c2ccccc2n1`, the Potency is reported as “inactive”.
With `Cc1ccc(-c2nc(NCc3ccc(F)cc3)n(S(C)(=O)=O)n2)cc1` the Potency was inconclusive [activator, partial curve, poor fit].
In the case of `CC(O)CSc1nc2c(c(=O)[nH]c(=O)n2C)n1Cc1ccccc1Cl` (stereo not drawn), the Potency is reported as “inactive”.
With `COc1ccc(C2=NOC(C(=O)N3CCN(c4ccccc4OC)CC3)C2)cc1` (stereo not drawn) the Potency was “inactive”.
For `O=C(Cc1csc(NC(=O)Nc2ccc(Cl)cc2)n1)NC1CCCC1`, the Potency was inconclusive [activator, partial curve, poor fit].
With `O=C(Nc1ccccc1N1CCN(C(=O)c2ccc(Cl)cc2)CC1)c1cccc([N+](=O)[O-])c1` the Potency was inconclusive [activator, partial curve, poor fit].
With `CN1CCN(S(=O)(=O)c2cnccc2N2CCN(c3cccc(Cl)c3)CC2)CC1` the Potency was “inactive”.
In the case of `CCn1cc(C(=O)O)c(=O)c2cc(F)c(N3CCN(C(=S)NC(=O)c4ccc(F)cc4)CC3)cc21`, the Potency is reported as “inactive”.
In the case of `COc1ccc(-c2nc(N)ncc2Oc2ccccc2Br)c(O)c1`, the Potency is reported as inconclusive [activator, single point].
With `COc1ccc(-c2csc(N(CC3CCCO3)C(=O)c3ccc(C)cc3)n2)cc1` (stereo not drawn) the Potency was “inactive”.
For `CC(C)NC(=O)CNc1ccc(C(F)(F)F)cc1[N+](=O)[O-]`, the Potency was inconclusive [activator, single point].
In the case of `COC(=O)c1cc(COC(=O)c2nc3nccc(C)n3n2)oc1C`, the Potency is reported as inconclusive [activator, single point].
In the case of `Cc1ccc(N2C(=O)CC(Sc3ccccc3C(=O)O)C2=O)cc1C` (stereo not drawn), the Potency is reported as inconclusive [activator, single point].
For `CC(C)On1c(SCC(=O)N(C)C)nc2ccccc2c1=O`, the Potency was “inactive”.
With `O=C(N/N=C/c1cccc([N+](=O)[O-])c1)C1CC(=O)N(c2ccc(F)cc2)C1` (stereo not drawn) the activity, positive = re-replication was inconclusive: 37.2% [activator].
For `COc1ccccc1NC(=O)C(C/C=C(/C)Cl)C(C)=O` (stereo not drawn), the Potency was inconclusive [activator, partial curve, poor fit].
With `CCCCN(CC)C(=O)Cc1ccccc1OC` the Potency was “inactive”.
With `O=c1c2c([nH]c3ccccc13)CCCCC2` the Potency was “inactive”.
For `Cc1ccc(NC(=O)CSc2nc(NS(=O)(=O)c3ccccc3)cc(=O)[nH]2)cc1`, the Potency was “inactive”.
For `CCOc1ccccc1-n1nnnc1SCC(=O)N1CCCC1=O`, the Potency was “inactive”.
For `CC(=O)Nc1ccc(S(=O)(=O)NC2CC3CCC2C3)cc1` (stereo not drawn), the Potency was inconclusive [activator, single point].
With `Oc1ccc(C(=S)N2CCN(c3cccc(Cl)c3)CC2)cc1` the Potency was inconclusive [activator, single point].
In the case of `COc1ccc(CNC(=O)c2ccc(CS(=O)(=O)Cc3ccccc3F)o2)cc1`, the Potency is reported as “inactive”.
For `CCOCCCn1c(SCc2ccccc2)nnc1-c1ccncc1`, the Potency was “inactive”.
For `CN(CC(=O)Nc1ccc(F)c(F)c1F)C(=O)C1CSC2(C)CCC(=O)N12` (stereo not drawn), the Potency was inconclusive [activator, single point].
For `CC(C)c1ccc(C=NNc2ccc([N+](=O)[O-])cn2)cc1`, the Potency was active: 6.51 µM.
In the case of `CCCNC(=O)C(Cc1ccccc1)NC(=O)c1cccc([N+](=O)[O-])c1` (stereo not drawn), the Potency is reported as inconclusive [activator, full curve, poor fit].
In the case of `Cc1ccc(C)c(S(=O)(=O)N2CCCOC2CNC(=O)C(=O)NC2CC2)c1` (stereo not drawn), the Potency is reported as “inactive”.
In the case of `Cc1ccc(OCCOc2ccc(Br)cc2/C=N\NC(N)=O)cc1`, the Potency is reported as inconclusive [activator, single point].
With `CSc1ccc(S(=O)(=O)Nc2ccc3c4c(cccc24)CC3)cc1` the Potency was inconclusive [activator, single point].
In the case of `CC1CCCCC1NC(=O)COC(=O)c1ccc2ncsc2c1` (stereo not drawn), the Potency is reported as “inactive”.
In the case of `COCCC(=O)N1CCc2c([nH]c3ccccc23)C1C(C)(C)C` (stereo not drawn), the Potency is reported as “inactive”.
For `CCCc1cc(=O)[nH]c(SCC(=O)c2c(N)n(C3CC3)c(=O)[nH]c2=O)n1`, the Potency was inconclusive [activator, partial curve, poor fit].
For `CCN(CC)CCn1c(NS(=O)(=O)c2ccc(C)cc2)nc2ccccc21`, the Potency was “inactive”.
For `COc1ccc(S(=O)(=O)n2nc(OC(=O)c3ccc(C)cc3)cc2N)cc1`, the Potency was inconclusive [activator, partial curve, poor fit].
With `O=C(NCCCN1CCc2ccccc2C1)Nc1ccc(Cl)cc1` the Potency was “inactive”.
With `Cc1cnc(C(=O)Nc2ccc(S(=O)(=O)NCC(C)C)cc2)cn1` the Potency was inconclusive [activator, single point].
For `O=C(COC(=O)CSc1ccc([N+](=O)[O-])cc1)NCc1ccco1`, the Potency was “inactive”.
